The text below walks through data of the RNAGym collection of RNA variant scans (doi:10.1073/pnas.2313332121).

Sequences and labels used below:
B1: TPR 5TU (parent)
chain: GGAUCUUCUCGAUCUAACAAAAAAGACAAAUCUGCCACAAAGCUUGAGAGCAUCUUCGGAUGCAGAGGCGGCAGCCUUCGGUGGCGCGAUAGCGCCAACGUUCUCAACUAUGACACGCAAAACGCGUGCUCCGUUGAAUGGAGUUUAUCAUG

Variants at the background level are over-represented here. A value given as a limit tells only on which side of the number the result lay.

This series covers variants of B1. In words: polymerase ribozyme fitness, log enrichment relative to wild type (log ratio); higher = more active; in vitro selection for triplet polymerase activity. A digest of the protocol: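 Fitness measures genotype enrichment against wild-type enrichment on a logarithmic scale, with inverse-variance-weighted averaging of replicates. The logarithm is base 2, and genotypes were kept only with ≥10 input reads and ≥1 read per output in Illumina sequencing. The sequenced libraries came from one triplicate in vitro selection round, including frozen incubation at −7 °C, of PCR-built, transcribed mutant libraries of each subunit of a heterodimeric triplet polymerase ribozyme.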
A20G C43U G62U A91G: the “polymerase ribozyme fitness (log ratio)” value is not above -4.2. With A19C C72A A107U G143A the figure was not above -4.2.

Regarding A20C A40G A41U C87U C108U, the “polymerase ribozyme fitness (log ratio)” value is not above -4.2. With A19G G83A A91C G94C C96G U134G the figure was not above -4.2. Take A20C C76G: the “polymerase ribozyme fitness (log ratio)” value is not above -4.2.

As for A19G G92A U127G U130G, the “polymerase ribozyme fitness (log ratio)” value is not above -4.2.

A20U U53A C87U A89C G92C A147C: the “polymerase ribozyme fitness (log ratio)” value is not above -4.2. With A20U G42A G62A G86U U134G G140U the figure was not above -4.2. With A19U A24G G42C U134A the figure was not above -4.2; with A20U A28U G65C G88C U104G, not above -4.2. Turning to A20C A39C C79G A106G G124U, the “polymerase ribozyme fitness (log ratio)” value is not above -4.2.

For the variant A19U A30U G62C G65C C96A, the “polymerase ribozyme fitness (log ratio)” value is not above -4.2. With A20U C35U G59C C75U C87U C99U A137U A138U the figure was not above -4.2; with A19U A28G C36G G59A C96A, not above -4.2.

A19C G58C C87A C95A A98G: the “polymerase ribozyme fitness (log ratio)” value is not above -4.2. As to A19U C123U, the “polymerase ribozyme fitness (log ratio)” value is -0.609. With A20U A24G U55G G86C G94A G140A the figure was not above -4.2. With A20U G81U A98G A138C the figure was not above -4.2; with A20G G42C G84A C149A, not above -4.2; with A19U C69G C72U G84A, -3.03. With A20G A49C C54G C57U G84A U104C G136C the figure was not above -4.2; with A19C G50U C93U C132U A138G U151A, not above -4.2; with A19G A28U A40C A60C G71U C75A G86U, not above -4.2. Regarding A20U U53A, the “polymerase ribozyme fitness (log ratio)” value was -2.36.

Turning to A20G G25A A49G C54U C76U G84A A122U U145G, the “polymerase ribozyme fitness (log ratio)” value is not above -4.2. With A19C U53A G92A the figure was -3.8. With A19G A26G G92C the figure was not above -4.2; with A19U C87U A121C A147U, 0.743; with A20U G59U A91U C96G G100U, not above -4.2. Take A20C C27G U44C G46U C57A A110U: the “polymerase ribozyme fitness (log ratio)” value was not above -4.2. With A20C C63G G152A the figure was -2.4. With A20U U90A C123A the figure was not above -4.2; with A19G G50A G67A A91U C93A, not above -4.2; with A20G U45A U53A G71C C95G, not above -4.2. Take A20G C57A C69A C76U C96U: the “polymerase ribozyme fitness (log ratio)” value was -1.94.

For A20U C54A G58U G94U A119U A120G A142G, the “polymerase ribozyme fitness (log ratio)” value is not above -4.2. With A20U A26U C36G G50A C95G C123A G143U the figure was not above -4.2; with A20U A21C A60C C72A G141U, not above -4.2; with A20C A29G A121G, not above -4.2. As to A19G A26C U144G, the “polymerase ribozyme fitness (log ratio)” value was -2.17. As for A20C A40C U56A G92U, the “polymerase ribozyme fitness (log ratio)” value is -0.349. On to A19U C27U C36A G42C G86A G100C C118G, for which the “polymerase ribozyme fitness (log ratio)” value was not above -4.2. With A19G A21C A30U C38G A41C G48A U77G C93G C114G the figure was not above -4.2; with A19G G84C A115U A121G, -3.97.

In the case of A20C A30G U53A C105U, the “polymerase ribozyme fitness (log ratio)” value is not above -4.2.

A20G A26U G50C A52U U55C: the “polymerase ribozyme fitness (log ratio)” value was not above -4.2. On to A20G G71U A89G U144G U145G, for which the “polymerase ribozyme fitness (log ratio)” value is not above -4.2.

On to A20U A47G A66C G74A A89G C93A, for which the “polymerase ribozyme fitness (log ratio)” value is not above -4.2. For A20U A26C G50U C54A C87G C105A G140U, the “polymerase ribozyme fitness (log ratio)” value was not above -4.2. Consider A20U A21U A52G A64U C96A U139C, for which the “polymerase ribozyme fitness (log ratio)” value is not above -4.2. In the case of A20U U31C U53A C95A A113C, the “polymerase ribozyme fitness (log ratio)” value is not above -4.2. Take A19G U33C A41C A91U C93A A97C: the “polymerase ribozyme fitness (log ratio)” value is not above -4.2. With A19U C36G A37U G71C C85U the figure was not above -4.2; with A19U C85A A113U, -3.44; with A19U G58U G65A G92A, not above -4.2. With A20C A26U C38U G92U C99G U102G the figure was not above -4.2; with A19U A23C U33G A39C C69U C75G A147G, not above -4.2.

As to A19C U56A C57G U77G G88A A97G C118G G141U A142G G152U, the “polymerase ribozyme fitness (log ratio)” value is not above -4.2. Take A19G A40U A64G U102A U111A U134C: the “polymerase ribozyme fitness (log ratio)” value is not above -4.2.

For A19U C32G U55G U56A G92A U145A C149U, the “polymerase ribozyme fitness (log ratio)” value is not above -4.2.

Regarding A19C G34A A39C G67A G86A, the “polymerase ribozyme fitness (log ratio)” value was not above -4.2. With A20G U102G A107U C116U A142U the figure was not above -4.2; with A20U A28C G83U C87A C99G G140A, not above -4.2. With A20U C85G C125A U145C the figure was -3.41; with A20C A39C C76G C96U U146C, not above -4.2. As to A19U A22G A39C C79G, the “polymerase ribozyme fitness (log ratio)” value was not above -4.2. Turning to A20C A52U C85U U109G U127G, the “polymerase ribozyme fitness (log ratio)” value is not above -4.2. Turning to A19G U55A, the “polymerase ribozyme fitness (log ratio)” value was -0.576. With A19U G59C A89U G92C A121G the figure was -2.25. Turning to A19U G48C C75U U77C C93G A122U A150C, the “polymerase ribozyme fitness (log ratio)” value was not above -4.2. With A20C U90G C99U G136C the figure was not above -4.2; with A20U A73G C79A C96G, not above -4.2. As to A19C U31A A41C A64C C93A C114G G126A, the “polymerase ribozyme fitness (log ratio)” value is not above -4.2.

For the variant A20U U45A C54U G86U C103A G124A A142G, the “polymerase ribozyme fitness (log ratio)” value was not above -4.2. A20U A28U A47G A89U U148A: the “polymerase ribozyme fitness (log ratio)” value was not above -4.2. With A20U A28U C96U the figure was not above -4.2; with A20U A30U C76U A89G A91C A122G U134G, not above -4.2. With A20C A23C A37G the figure was not above -4.2. On to A20U A23U A24U C51U A60G C85G, for which the “polymerase ribozyme fitness (log ratio)” value is not above -4.2. Regarding A19U A21U C87A A106G U139C, the “polymerase ribozyme fitness (log ratio)” value is not above -4.2. With A19U C32A C105G A147C, the “polymerase ribozyme fitness (log ratio)” value was not above -4.2. As to A19G A41G U45A G86C A142G U144G, the “polymerase ribozyme fitness (log ratio)” value was not above -4.2. With A20U C93U G126A the figure was -1.5; with A20G C63A G74A C93A, not above -4.2.
